Reference: the CheMixHub viscosity set

SMILES	viscosity (293.15 K, 101 kPa)	viscosity (298.15 K, 101 kPa)	viscosity (298.15 K, 101.33 kPa)	viscosity (303.15 K, 101 kPa)	viscosity (313.15 K, 101.33 kPa)
ClC(Cl)Cl	0.5771 ± 0.015 mPa·s [study A] and 0.556 ± 0.006 mPa·s [study B] and 0.57 ± 0.012 mPa·s [study C] and 0.5706 ± 0.015 mPa·s [study D]	0.5422 ± 0.014 mPa·s, 0.54 ± 0.014 mPa·s, 0.542 ± 0.006 mPa·s, 0.542 ± 0.0055 mPa·s, 0.504 ± 0.0051 mPa·s, 0.504 ± 0.012 mPa·s, 0.5426 ± 0.014 mPa·s, 0.542 ± 0.009 mPa·s, 0.532 ± 0.005 mPa·s, 0.532 ± 0.014 mPa·s, 0.539 ± 0.007 mPa·s, 0.55 ± 0.015 mPa·s, 0.527 ± 0.005 mPa·s, 0.54 ± 0.007 mPa·s (2×) [several studies]	0.5475 ± 0.0055 mPa·s, 0.535 ± 0.0037 mPa·s, 0.542 ± 0.005 mPa·s, 0.533 ± 0.005 mPa·s, 0.5357 ± 0.0054 mPa·s, 0.5356 ± 0.0054 mPa·s, 0.5378 ± 0.015 mPa·s, 0.495 ± 0.014 mPa·s, 0.5565 ± 0.0078 mPa·s, 0.532 ± 0.015 mPa·s [several studies]	0.504 ± 0.0053 mPa·s [study A] and 0.5246 ± 0.0058 mPa·s [study B] and 0.61 ± 0.016 mPa·s [study C] and 0.504 ± 0.005 mPa·s [study D] and 0.635 ± 0.008 mPa·s [study E] and 0.5171 ± 0.014 mPa·s [study F] and 0.506 ± 0.005 mPa·s [study G]	
CC(=O)OCc1ccccc1					1.353 mPa·s [study A] and 1.487 ± 0.2 mPa·s [study B]
CCCCCCCCCCCCCCCC			3.078 ± 0.024 mPa·s [study A] and 3.073 ± 0.023 mPa·s [study B] and 3.005 ± 0.068 mPa·s [study C] and 3.081 ± 0.027 mPa·s (3×) [study D]		

± gives the uncertainty stated by the source. For part of its entries the source gives two or more results. They are shown here; other results are not. There may be further records. Values that stand side by side are repeats (runs, samples, wells, individuals or studies). Brackets tell where a record comes from. Letters count within one entry. Marks such as (2×) count equal records among those shown.
